Laboratory results reported in article PMC9911399, “Two distinct binding modes provide the RNA-binding protein RbFox with extraordinary sequence specificity”.
Where a chain is given by its changes, count along the chain named. The list shows a part of the results.

B1: UAGGACG (DNA:RNA)
RNA: GGGAGACCGGAAUUCAGAUUGUCCUAGGACGUUAAAUCCCGUCGUAGCCACCA
DNA 1: CAATCTGAATTCCGGTCTCCC
DNA 2: TGGTGGCTACGACGGGATT
B2: CGCACGA (DNA:RNA)
RNA: GGGAGACCGGAAUUCAGAUUGUCCCGCACGAUUAAAUCCCGUCGUAGCCACCA
DNA 1: CAATCTGAATTCCGGTCTCCC
DNA 2: TGGTGGCTACGACGGGATT
B3: CCAGGAG (DNA:RNA)
RNA: B1 RNA with U25C, A26C, G27A, A29G, C30A
DNA 1: CAATCTGAATTCCGGTCTCCC
DNA 2: TGGTGGCTACGACGGGATT
B4: CGUUGCA (DNA:RNA)
RNA: B2 RNA with C27U, A28U, C29G, G30C
DNA 1: CAATCTGAATTCCGGTCTCCC
DNA 2: TGGTGGCTACGACGGGATT
B5: UACGUUG (DNA:RNA)
RNA: B1 RNA with G27C, A29U, C30U
DNA 1: CAATCTGAATTCCGGTCTCCC
DNA 2: TGGTGGCTACGACGGGATT
B6: GCAUCAU (DNA:RNA)
RNA: B2 RNA with C25G, G26C, C27A, A28U, G30A, A31U
DNA 1: CAATCTGAATTCCGGTCTCCC
DNA 2: TGGTGGCTACGACGGGATT
B7: AUCUAAC (DNA:RNA)
RNA: B2 RNA with C25A, G26U, A28U, C29A, G30A, A31C
DNA 1: CAATCTGAATTCCGGTCTCCC
DNA 2: TGGTGGCTACGACGGGATT
B8: AGAGUGU (DNA:RNA)
RNA: B2 RNA with C25A, C27A, A28G, C29U, A31U
DNA 1: CAATCTGAATTCCGGTCTCCC
DNA 2: TGGTGGCTACGACGGGATT
B9: UUAACUC (DNA:RNA)
RNA: B2 RNA with C25U, G26U, C27A, G30U, A31C
DNA 1: CAATCTGAATTCCGGTCTCCC
DNA 2: TGGTGGCTACGACGGGATT
B10: GCCCUAC (DNA:RNA)
RNA: B2 RNA with C25G, G26C, A28C, C29U, G30A, A31C
DNA 1: CAATCTGAATTCCGGTCTCCC
DNA 2: TGGTGGCTACGACGGGATT
B11: GACAAAU (DNA:RNA)
RNA: B2 RNA with C25G, G26A, C29A, G30A, A31U
DNA 1: CAATCTGAATTCCGGTCTCCC
DNA 2: TGGTGGCTACGACGGGATT
B12: GACCGGG (DNA:RNA)
RNA: B2 RNA with C25G, G26A, A28C, C29G, A31G
DNA 1: CAATCTGAATTCCGGTCTCCC
DNA 2: TGGTGGCTACGACGGGATT
B13: UGUGCCU (DNA:RNA)
RNA: B1 RNA with A26G, G27U, A29C, G31U
DNA 1: CAATCTGAATTCCGGTCTCCC
DNA 2: TGGTGGCTACGACGGGATT
B14: AAACCAA (DNA:RNA)
RNA: B2 RNA with C25A, G26A, C27A, A28C, G30A
DNA 1: CAATCTGAATTCCGGTCTCCC
DNA 2: TGGTGGCTACGACGGGATT
B15: CGCUCUU (DNA:RNA)
RNA: B2 RNA with A28U, G30U, A31U
DNA 1: CAATCTGAATTCCGGTCTCCC
DNA 2: TGGTGGCTACGACGGGATT
B16: CACAUCA (DNA:RNA)
RNA: B2 RNA with G26A, C29U, G30C
DNA 1: CAATCTGAATTCCGGTCTCCC
DNA 2: TGGTGGCTACGACGGGATT
B17: CGCAUUG (DNA:RNA)
RNA: B2 RNA with C29U, G30U, A31G
DNA 1: CAATCTGAATTCCGGTCTCCC
DNA 2: TGGTGGCTACGACGGGATT
B18: AGGUGGG (DNA:RNA)
RNA: B2 RNA with C25A, C27G, A28U, C29G, A31G
DNA 1: CAATCTGAATTCCGGTCTCCC
DNA 2: TGGTGGCTACGACGGGATT
B19: GCUUUAG (DNA:RNA)
RNA: B1 RNA with U25G, A26C, G27U, G28U, A29U, C30A
DNA 1: CAATCTGAATTCCGGTCTCCC
DNA 2: TGGTGGCTACGACGGGATT
B20: CCAAUAC (DNA:RNA)
RNA: B2 RNA with G26C, C27A, C29U, G30A, A31C
DNA 1: CAATCTGAATTCCGGTCTCCC
DNA 2: TGGTGGCTACGACGGGATT
B21: CGACGUA (DNA:RNA)
RNA: B2 RNA with C27A, A28C, C29G, G30U
DNA 1: CAATCTGAATTCCGGTCTCCC
DNA 2: TGGTGGCTACGACGGGATT
B22: AAAGUGG (DNA:RNA)
RNA: B1 RNA with U25A, G27A, A29U, C30G
DNA 1: CAATCTGAATTCCGGTCTCCC
DNA 2: TGGTGGCTACGACGGGATT
B23: GGCUUUG (DNA:RNA)
RNA: B2 RNA with C25G, A28U, C29U, G30U, A31G
DNA 1: CAATCTGAATTCCGGTCTCCC
DNA 2: TGGTGGCTACGACGGGATT
B24: UCGAAAA (DNA:RNA)
RNA: B1 RNA with A26C, G28A, C30A, G31A
DNA 1: CAATCTGAATTCCGGTCTCCC
DNA 2: TGGTGGCTACGACGGGATT
B25: CAGAGUG (DNA:RNA)
RNA: B1 RNA with U25C, G28A, A29G, C30U
DNA 1: CAATCTGAATTCCGGTCTCCC
DNA 2: TGGTGGCTACGACGGGATT
B26: UAACGUG (DNA:RNA)
RNA: B1 RNA with G27A, G28C, A29G, C30U
DNA 1: CAATCTGAATTCCGGTCTCCC
DNA 2: TGGTGGCTACGACGGGATT
B27: GCGAGCU (DNA:RNA)
RNA: B1 RNA with U25G, A26C, G28A, A29G, G31U
DNA 1: CAATCTGAATTCCGGTCTCCC
DNA 2: TGGTGGCTACGACGGGATT
B28: CAUGUUU (DNA:RNA)
RNA: B1 RNA with U25C, G27U, A29U, C30U, G31U
DNA 1: CAATCTGAATTCCGGTCTCCC
DNA 2: TGGTGGCTACGACGGGATT
B29: ACCGUAG (DNA:RNA)
RNA: B1 RNA with U25A, A26C, G27C, A29U, C30A
DNA 1: CAATCTGAATTCCGGTCTCCC
DNA 2: TGGTGGCTACGACGGGATT
B30: UUUAAAC (DNA:RNA)
RNA: B1 RNA with A26U, G27U, G28A, C30A, G31C
DNA 1: CAATCTGAATTCCGGTCTCCC
DNA 2: TGGTGGCTACGACGGGATT
B31: AAUAGUG (DNA:RNA)
RNA: B1 RNA with U25A, G27U, G28A, A29G, C30U
DNA 1: CAATCTGAATTCCGGTCTCCC
DNA 2: TGGTGGCTACGACGGGATT

Each binder was assayed against T1, RBFOX1 RRM (Homo sapiens, UniProt Q9NWB1 109-208) (assay: EMSA; HiTS-Eq, 1 nM pool, 10 min; buffer printed only for the single-RNA assays: 10 mM Tris pH 7.5, 150 mM NaCl, 3.4 mM EDTA, 0.001% NP-40, 30 C). Details: tags: His6 N-terminal (pET28a); label: 5' 32P.
T1 sequence: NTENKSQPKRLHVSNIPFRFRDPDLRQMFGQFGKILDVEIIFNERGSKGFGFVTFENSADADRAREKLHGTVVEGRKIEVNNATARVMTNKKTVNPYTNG
Summary of the method: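 Purified RbFox RRM (wild type or mutant) was equilibrated for 10 min in 50 µL with 1 nM of a 5′-radiolabelled pool of RNA with 7 randomized nucleotides, its flanks annealed to DNA oligonucleotides, across increasing protein concentrations. Free RNA was separated by 8% native PAGE, excised, reverse-transcribed, PCR-barcoded and sequenced on an Illumina HiSeq 2500. Relative association constants came from read-count changes of each variant against the control reaction, normalised to the cognate motif.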

Row | Binder | binding signal
1 | B1 | 0.00709 KA relative to UGCAUGU
2 | B2 | 0.0204 KA relative to UGCAUGU
3 | B3 | 0.0104 KA relative to UGCAUGU
4 | B4 | 0.0228 KA relative to UGCAUGU
5 | B5 | 0.0217 KA relative to UGCAUGU
6 | B6 | 0.0109 KA relative to UGCAUGU
7 | B7 | 0.00288 KA relative to UGCAUGU
8 | B8 | 0.0147 KA relative to UGCAUGU
9 | B9 | 0.00361 KA relative to UGCAUGU
10 | B10 | 0.00603 KA relative to UGCAUGU
11 | B11 | 0.00361 KA relative to UGCAUGU
12 | B12 | 0.0106 KA relative to UGCAUGU
13 | B13 | 0.0188 KA relative to UGCAUGU
14 | B14 | 0.000302 KA relative to UGCAUGU
15 | B15 | 0.00912 KA relative to UGCAUGU
16 | B16 | 0.00161 KA relative to UGCAUGU

Row | Binder | binding signal
17 | B17 | 0.0131 KA relative to UGCAUGU
18 | B18 | 0.0126 KA relative to UGCAUGU
19 | B19 | 0.0126 KA relative to UGCAUGU
20 | B20 | 0.00204 KA relative to UGCAUGU
21 | B21 | 0.00872 KA relative to UGCAUGU
22 | B22 | 0.0114 KA relative to UGCAUGU
23 | B23 | 0.0219 KA relative to UGCAUGU
24 | B24 | 0.00302 KA relative to UGCAUGU
25 | B25 | 0.0145 KA relative to UGCAUGU
26 | B26 | 0.0123 KA relative to UGCAUGU
27 | B27 | 0.0186 KA relative to UGCAUGU
28 | B28 | 0.0086 KA relative to UGCAUGU
29 | B29 | 0.00535 KA relative to UGCAUGU
30 | B30 | 0.00342 KA relative to UGCAUGU
31 | B31 | 0.00787 KA relative to UGCAUGU
